Reference: the supplement of paper PMC3334620
Over roughly 33,000 sequences, “E-score (-0.5 to 0.5)” has its median near -0.012; the highest 2% begin near 0.27. The list shows a part of the results.

Biological target: T1, Vhr1 (UniProt P40522)
T1 sequence: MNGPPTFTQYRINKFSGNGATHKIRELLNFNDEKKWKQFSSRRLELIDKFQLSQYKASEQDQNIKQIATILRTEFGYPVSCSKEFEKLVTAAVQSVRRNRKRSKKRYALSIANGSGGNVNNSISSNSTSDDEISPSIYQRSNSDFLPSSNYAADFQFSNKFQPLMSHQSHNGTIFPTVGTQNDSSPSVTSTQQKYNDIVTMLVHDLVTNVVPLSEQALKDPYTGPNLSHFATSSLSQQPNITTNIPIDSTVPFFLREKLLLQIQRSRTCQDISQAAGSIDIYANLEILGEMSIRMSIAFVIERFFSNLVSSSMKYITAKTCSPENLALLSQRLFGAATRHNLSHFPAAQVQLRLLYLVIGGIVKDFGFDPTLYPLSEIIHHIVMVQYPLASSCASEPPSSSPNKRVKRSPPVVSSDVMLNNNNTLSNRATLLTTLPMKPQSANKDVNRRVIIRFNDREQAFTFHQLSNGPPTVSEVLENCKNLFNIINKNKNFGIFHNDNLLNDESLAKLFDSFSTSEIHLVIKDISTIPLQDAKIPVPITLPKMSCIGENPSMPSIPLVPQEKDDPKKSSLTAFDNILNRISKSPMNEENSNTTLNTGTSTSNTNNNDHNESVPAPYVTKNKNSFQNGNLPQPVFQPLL
Assay: PBM E-score (8-mer binding enrichment) (E-score (-0.5 to 0.5)); higher = stronger / more preferred TF binding; most listed sequences are background and not binding sites
Settings: protein concentration: 200 nM; construct: GST-full length
Method in brief: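 Universal all-10-mer Agilent arrays, fresh or stripped once, were converted to double-stranded form by primer extension. GST-tagged yeast transcription factors from PURExpress in vitro transcription/translation, full-length or DNA-binding domain only, were applied at about 100-200 nM and detected with fluorescent anti-GST. After masliner normalisation, the Universal PBM Analysis Suite scored each ungapped eight-base word together with its reverse complement by E-score.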

Point of comparison: AACAAAGA, “PBM E-score” value -0.125. Against it:
- TGTCCGAA — higher, -0.0223
- ATAATGAC — higher, 0.136
- CTGCGCCA — higher, 0.115
- AACTTCGC — lower, -0.229
- ACAGGAGC — higher, -0.0567
- AACCTCTA — lower, -0.158
- CTGTTTTC — lower, -0.183
- GTAAGGAC — higher, -0.0512
- GTAACGGA — higher, 0.0219
- AAGAGCTT — lower, -0.233
- GTTTAAAC — lower, -0.135
- ACAGGACG — higher, -0.0214
- AACTGGAG — lower, -0.16
- AGGTCTGC — higher, -0.0985
- ATAGAAAC — higher, -0.0561
- AACGTATC — higher, -0.0587
- CCGGTACC — higher, -0.0228
- AGACTTCG — higher, -0.0819
- ACGCCTAA — higher, -0.0505
- ACCCCCAA — higher, -0.0406
- CGTGAGTC — higher, 0.428
- GCTACGGA — lower, -0.128
- CAACACGC — higher, -0.0709
- CGCCCATC — higher, 0.178
- CGATCTAG — higher, -0.0972
- ACTCCGAT — higher, 0.1
- ATGGGCTC — higher, 0.272
- AGACCTTG — higher, -0.035
- AAACCTCC — lower, -0.168
- AGTTCTGC — higher, -0.039
- ACTAATAA — higher, 0.0661
- CGCGTACG — higher, 0.0931
- AAGCACAC — higher, 0.0247
- ATCCCGGC — higher, 0.0143
- CTATCGGA — lower, -0.237
- CAGGCTGG — higher, -0.0642
- CTAATCCC — higher, -0.0416
- AAACAGCA — higher, -0.0592
- CTGGAGTA — higher, -0.0097
- CTGTGCGA — lower, -0.143
- AAAGCGCG — lower, -0.248
- CTAGACCC — higher, -0.12
- ATTTCCGA — higher, -0.0676
- TGTTTCAA — higher, -0.00182
- GCAATATA — higher, 0.11
- AAGTCTGC — lower, -0.241
- ATCAGCGA — higher, -0.0565
- CTTATGGA — higher, -0.12
- GGTCATAC — higher, 0.0467
- GCCCCTCA — higher, -0.0991
- AACGTGAA — higher, -0.0973
- CGACACGC — higher, 0.191
- ATCGATCG — higher, 0.0613
- ATGATGGA — higher, 0.156
- AATAGCTC — higher, -0.0193
- ACCGGCTG — higher, 0.229
- CAAGCTTC — lower, -0.235
- ACGGAACA — higher, 0.0435
- CCAATAAC — higher, 0.0537
- CTTACTGC — higher, 0.0765
- GCGACGTA — higher, 0.0109
- ACCGCGAA — higher, 0.0978
- CATACCCC — higher, 0.105
- GTTATCAA — higher, -0.02
- GAGGCTCC — higher, -0.11
- TAAAGTTA — higher, 0.003
- CCGCGACC — higher, 0.0903
- AAATTGCC — higher, -0.0786
- ATGGCTCC — higher, 0.325
- CCCGGTCG — higher, -0.0479
- AGCTAGAA — lower, -0.142
- AGCTGAGA — higher, -0.109
- GGACGACC — lower, -0.215
- CAGCAACG — higher, 0.116
- AAACGTTC — higher, -0.0943
- AATCCTAG — lower, -0.256
- GCCTTGAA — lower, -0.184
- GCGGTTTA — higher, 0.0642
- ATGCGATA — higher, -0.0117
- ATGCGAGG — higher, -0.0121
- CCCGCAGA — higher, -0.0495
- AAAACCCC — lower, -0.217
- TCTACACA — higher, 0.118
- TCCCCCCA — lower, -0.233
- CAAATGAA — higher, -0.0291
